Data from paper PMC7819943, “Rice protein-binding microarrays: a tool to detect cis-acting elements near promoter regions in rice”.
The other results are listed elsewhere or left out.

molecular target: T1, OsWOX13 (Oryza sativa, UniProt Q5QMM3 1-267); test: protein-binding microarray (RPBM); PBS, 2% BSA, 51.3 ng/ul salmon testes DNA, 50 uM zinc acetate, 200 nM TF, 25 C, 1 h; high values mean tight binding; details: protein: recombinant; tags: N-terminal polyhistidine and DsRed monomer fusion (pET32a); label: CyDye5-dUTP incorporated in the synthesized complementary strand; 3' TTTTT single-stranded linker to array surface; dsDNA, one strand shown
T1 sequence: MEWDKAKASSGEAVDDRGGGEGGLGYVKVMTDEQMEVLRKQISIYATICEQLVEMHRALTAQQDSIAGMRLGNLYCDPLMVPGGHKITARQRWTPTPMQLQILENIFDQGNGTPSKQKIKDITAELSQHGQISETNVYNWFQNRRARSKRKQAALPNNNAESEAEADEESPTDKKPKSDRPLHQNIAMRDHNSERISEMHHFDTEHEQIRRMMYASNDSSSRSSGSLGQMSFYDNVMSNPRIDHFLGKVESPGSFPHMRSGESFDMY
Procedure, shortened: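 Binding signal here means per-feature fluorescence intensity in arbitrary units. The values were read on an Axon 4000B scanner after a custom Agilent array, double-stranded by primer extension with Cy5-dUTP, was incubated with 200 nM protein at 25 °C for 1 h in PBS with 2% BSA, salmon testes DNA and 50 µM zinc acetate, then washed. The proteins were transcription factors with an N-terminal polyhistidine tag and DsRed, expressed in E. coli BL21-CodonPlus and purified on Ni–NTA.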

Row | Sequence | binding signal
1 | TTGGTTTCTAATTTGGCTGAATGACTGCAAGTTCCAAGGCCGGAGTCACCTAGTGCAG | 5830 fluorescence intensity (a.u.)
2 | GTATAAACACATATTCGACATGATTAGGAAATGGCCTTCCCGGAGTCACCTAGTGCAG | 5520 fluorescence intensity (a.u.)
3 | CCGTCAATTTGATAGTAAGATCTGTAACGCGTGGTCTTTCCGGAGTCACCTAGTGCAG | 10900 fluorescence intensity (a.u.)
4 | TGCTAGTTAATATAATCTACTAATTAAAATAGTCGATTGACGGAGTCACCTAGTGCAG | 6000 fluorescence intensity (a.u.)
5 | AAATTTTAATTTATATTATAATAGTTGTTGGTCAAATATTCGGAGTCACCTAGTGCAG | 6360 fluorescence intensity (a.u.)
6 | GTAATTTTAAGTATAATTATGGGTTTTGTGTCCAAAATTTCGGAGTCACCTAGTGCAG | 9000 fluorescence intensity (a.u.)
7 | ACTAATTGGAGAGGGAAAAGCACAGGGAATCCCGTGCCATCGGAGTCACCTAGTGCAG | 12800 fluorescence intensity (a.u.)
8 | AGGGAAATCAACACTAATTGCTGCCTTCATACTAGCACATCGGAGTCACCTAGTGCAG | 19800 fluorescence intensity (a.u.)
9 | TAAGCAACCAATTAAGTGATCGACCAACCAATCTGTACACCGGAGTCACCTAGTGCAG | 4240 fluorescence intensity (a.u.)
10 | TATTCAAATCATTTAAGTAATTATTTATTCTTTTCATATCCGGAGTCACCTAGTGCAG | 10000 fluorescence intensity (a.u.)
11 | ATTAATTTGTGTGTGAAACTGACATGTGGGTCCCACGGGGCGGAGTCACCTAGTGCAG | 23800 fluorescence intensity (a.u.)
12 | TGTGAGTGATCAAATAATTGATCATAATTTTCTATCGATTCGGAGTCACCTAGTGCAG | 37500 fluorescence intensity (a.u.)
13 | TTTTATTTTACCATCTAATTACTACAATAGAATTTAACTGCGGAGTCACCTAGTGCAG | 3190 fluorescence intensity (a.u.)
14 | CTTTTAATTGGTTTTACAGTTTGGTGAAAGGTACAGCATGCGGAGTCACCTAGTGCAG | 28000 fluorescence intensity (a.u.)
15 | AGAGCACACTACACTCCGTTGATTGACCCTTCATGGCTAACGGAGTCACCTAGTGCAG | 11400 fluorescence intensity (a.u.)
16 | CAATGGTTGATTGCAACATATATATGTAGTGGCTGCAGCTCGGAGTCACCTAGTGCAG | 14200 fluorescence intensity (a.u.)
17 | CTGTCGTGTTTCCTCTGATTAGTTCATACAGCATCTGTTACGGAGTCACCTAGTGCAG | 4150 fluorescence intensity (a.u.)
18 | GAACTAACTGAGTGTCATATTGGAAGATGTGTAAAATTGCCGGAGTCACCTAGTGCAG | 4150 fluorescence intensity (a.u.)
19 | AAAGATAAATTTGACTGTGAATGTGAATATATGTTAATTACGGAGTCACCTAGTGCAG | 8690 fluorescence intensity (a.u.)
20 | CTATGATGATAGAGAACGTTACCATAATAGAGAACGTTATCGGAGTCACCTAGTGCAG | 9610 fluorescence intensity (a.u.)
21 | ACAAAATTTTGAACAAATGTGATGGTATGCCATTAGCTATCGGAGTCACCTAGTGCAG | 4480 fluorescence intensity (a.u.)
22 | CTCATAAGTTGATTTATAAGCATAAATAAGAGGGATTTGTCGGAGTCACCTAGTGCAG | 11600 fluorescence intensity (a.u.)
23 | TGTTAATTACTTGTTCTACTGCAGTTAATTAATGGATATGCGGAGTCACCTAGTGCAG | 35300 fluorescence intensity (a.u.)
